# According to the supplement of paper PMC3334620:
# Whole data set: some 33,000 sequences, median “E-score (-0.5 to 0.5)” near -0.012, cut for the highest 2% near 0.27. The list shows a part of the results.
# Molecular target: T1, Vhr1 (UniProt P40522)
# T1 sequence: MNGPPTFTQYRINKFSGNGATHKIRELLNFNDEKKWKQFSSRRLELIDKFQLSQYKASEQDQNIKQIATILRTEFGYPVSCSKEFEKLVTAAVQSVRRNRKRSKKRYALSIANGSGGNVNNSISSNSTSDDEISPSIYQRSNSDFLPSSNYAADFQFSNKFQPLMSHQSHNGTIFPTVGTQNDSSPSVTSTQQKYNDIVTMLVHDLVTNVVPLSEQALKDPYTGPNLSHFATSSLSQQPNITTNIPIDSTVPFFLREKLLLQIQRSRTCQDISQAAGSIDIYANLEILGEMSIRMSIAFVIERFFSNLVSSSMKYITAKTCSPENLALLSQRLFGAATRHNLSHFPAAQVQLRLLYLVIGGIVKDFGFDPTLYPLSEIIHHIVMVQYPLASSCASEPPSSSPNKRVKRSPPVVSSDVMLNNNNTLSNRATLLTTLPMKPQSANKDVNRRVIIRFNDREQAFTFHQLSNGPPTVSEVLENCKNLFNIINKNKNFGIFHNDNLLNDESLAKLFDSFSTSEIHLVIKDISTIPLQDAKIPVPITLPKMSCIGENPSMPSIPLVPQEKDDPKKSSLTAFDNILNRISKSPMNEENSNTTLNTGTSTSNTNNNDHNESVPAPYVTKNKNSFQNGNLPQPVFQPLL
# Assay: PBM E-score (8-mer binding enrichment) (E-score (-0.5 to 0.5)); higher = stronger / more preferred TF binding; most listed sequences are background and not binding sites
# Settings: protein concentration: 200 nM; construct: GST-full length
# Outline: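 GST-tagged yeast TFs (full-length or DNA-binding domain) were made by PURExpress in vitro transcription/translation and applied at about 100-200 nM to universal all-10-mer Agilent arrays. The arrays were made double-stranded by primer extension, on fresh or once-stripped slides. Bound protein was detected with fluorescent anti-GST, and scans were normalised with masliner. Each ungapped eight-base word, pooled with its reverse complement, received an E-score (modified Wilcoxon-Mann-Whitney statistic) from the Universal PBM Analysis Suite.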
row,Sequence,PBM E-score
1,CGAAAATC,0.0303
2,TATCGTCA,0.00818
3,ACGCGGCT,-0.176
4,AGCTACAT,-0.0935
5,AGTACCTG,0.143
6,CCATTCTA,-0.0888
7,TCAAGCAA,-0.195
8,AGCCGACG,-0.0927
9,CTTCGGGA,-0.141
10,CCGCGTGA,0.13
11,CGAGATCA,0.108
12,CCACTCCA,0.0742
13,CATTGCCA,-0.0948
14,ACCGGATG,0.0519
15,AGGATGAT,0.309
16,CGACGCGA,0.0568
17,GGCATCCC,-0.196
18,GGCTCAGA,0.137
19,CCGGGTCG,0.127
20,CGGCAAGA,-0.0673
21,ACGGTGCT,-0.00084
22,GGCACTAA,0.0104
23,CTTGTAGC,-0.0759
24,ACGCGGAC,-0.12
25,GCTGGTAC,-0.075

row,Sequence,PBM E-score
1,CCACGCCA,-0.0132
2,GTCGTAGA,-0.047
3,AGCCCCCT,-0.38
4,CATCCAGA,0.00259
5,CCACACAA,-0.038
6,CGTGGTGA,-0.158
7,ACTAGCAA,0.0945
8,CGGCGCGA,0.258
9,AGCCCACT,0.0241
10,ACCCGATA,0.13
11,AGTAAGCA,-0.149
12,CAACCTTC,-0.171
13,GCTTTTCC,-0.198
14,TCTCGCAA,0.0933
15,GAGCATCA,-0.123
16,TCTGATCA,-0.0595
17,GAGGGCTA,-0.228
18,AGCTCCTA,-0.257
19,CTATGCGC,0.0131
20,AGCCGTCC,0.0312
21,ACATCCAC,-0.0572
22,AAAAATAG,-0.179
23,AATGGTAC,-0.0665
24,GGTGCTGA,0.042
25,GAGTGTTA,0.00822

row,Sequence,PBM E-score
1,ACTTTGAT,0.0736
2,AAAGTACA,0.071
3,ACTTAGTC,0.106
4,TCTAGCAA,-0.06
5,CGTCCTTC,-0.111
6,CGTATAGA,-0.064
7,AGAAAGGC,-0.214
8,GCATCTAA,-0.189
9,CACGGAAC,0.0514
10,ATTCCGAA,0.0744
11,CCCTATCG,-0.184
12,ATGGGAAC,0.0101
13,GGAGAGAC,0.0479
14,AGCTTGTA,-0.0135
15,GCCCTACA,-0.0859
16,ACTTAGAC,-0.127
17,ATAAAGAT,-0.0599
18,ACTTAAAT,-0.221
19,ACTGTAAG,-0.0286
20,TATAGTGA,-0.0332
21,TCGTAGCA,0.111
22,GTGTTAAC,0.0538
23,CGCCCACC,0.0735
24,CACGTTTC,-0.139
25,ATCACTGG,0.141

row,Sequence,PBM E-score
1,ATGCTCAA,-0.0744
2,ATCTTGCG,0.0213
3,ACGCAGTA,-0.139
4,GGATGTCA,0.232
5,CTCTGCTA,-0.301
6,CCGTGAGA,-0.155
7,CATCATAG,0.266
8,CCTACCAC,-0.163
9,ATAGCGGG,-0.00629
10,GGACACAA,0.221
11,CAGTCGCG,0.196
12,CGGCTTAG,-0.111
13,ACTCCCTA,0.063
14,CCTAACAC,0.164
15,AGTACGCC,-0.108
16,ACGGTCTC,-0.103
17,ATTAGTCG,0.279
18,CACATCAG,0.1
19,GGGTAGTA,-0.0945
20,CCGGCTAA,0.0635
21,CTGGGACA,-0.0675
22,AACGCACT,-0.0503
23,TAGCGCAA,-0.0984
24,GCGTATTA,-0.048
25,GTAGCGCA,-0.115

row,Sequence,PBM E-score
1,AAACTTCT,-0.158
2,GGCAAGCC,-0.135
3,AATTTGTG,0.0608
4,AAGGACAA,0.0325
5,ACGCTGTA,0.0901
6,ACGTAGGA,-0.0384
7,CTTTAGAA,-0.238
8,CTGCCGCA,0.00633
9,CTATAATC,0.0573
10,GCCCAGGA,-0.0566
11,TAACTATA,-0.0169
12,GCGGCAGC,-0.118
13,GACTAGCA,0.184
14,AATCGAAT,-0.0147
15,GCATTTAA,-0.218
16,CCATCGCG,0.134
17,GAAGTCCA,-0.213
18,AGAAGGCA,-0.173
19,CCGAGCAC,0.0108
20,AGCGCCGC,-0.191
21,CACCCGAA,0.181
22,AATGCCGA,0.0142
23,GTCGTCGA,-0.196
24,GGCGAAAA,0.0247
25,AGCAGAGA,-0.0463

row,Sequence,PBM E-score
1,ACGAAATG,0.078
2,CCGAGTGA,0.19
3,GATACTCA,0.265
4,GACTCGCC,0.276
5,ACTAGAGG,-0.0982
6,GGGAGCGA,0.0761
7,GATCTAAA,-0.104
8,ATCACTCA,0.234
9,CGCACACC,0.186
10,ACGGCTTA,-0.00477
11,AGACACGA,0.0497
12,ATCTACCG,0.0941
13,TGACTGAA,0.196
14,AACTAGAG,-0.00407
15,GGGATGCA,-0.174
16,ACAATCTA,0.0111
17,CATCTGGG,-0.183
18,GCTTAGCC,0.00512
19,AGATTTAT,0.0701
20,AACATAAA,0.00715
21,GGGGACGA,-0.0218
22,AATTACAA,0.0114
23,TTAGGCAA,-0.193
24,CCATACGG,-0.0355
25,ACAACACG,0.0546

row,Sequence,PBM E-score
1,CGTAAAGA,-0.289
2,CAGACCCA,0.0519
3,CTGCTAGA,-0.122
4,GATTGCGA,0.0903
5,CATATCAG,-0.0382
6,CGGTTGAC,-0.0106
7,AGATTCTG,-0.161
8,CATACATC,0.146
9,GGGTACCC,-0.122
10,CAAAGCCA,0.0186
11,AATACTGG,0.145
12,CCCAGCAC,-0.0374
13,GCGTCCTA,-0.0317
14,CCCGGCCG,0.0208
15,CAACTTCG,0.0147
16,CTTCCTGA,0.038
17,AGCGTCCA,-0.286
18,AATATTTG,0.102
19,CGCGGTGC,0.0465
20,AGGGGAGG,0.263
21,ATCCACAT,0.0973
22,AAACAGTG,0.114
